Experimental data as given in the BET-seq Pho4 binding data (Le et al. 2018).
Some of the results follow. Values were computed here from the reads of four pooled replicates and scatter widely.

What follows are sequences tested against T1, Pho4 (S. cerevisiae) (UniProt P07270) (assay: relative binding free energy (BET-seq); higher = weaker binding). Settings: reference: library average.
T1 sequence: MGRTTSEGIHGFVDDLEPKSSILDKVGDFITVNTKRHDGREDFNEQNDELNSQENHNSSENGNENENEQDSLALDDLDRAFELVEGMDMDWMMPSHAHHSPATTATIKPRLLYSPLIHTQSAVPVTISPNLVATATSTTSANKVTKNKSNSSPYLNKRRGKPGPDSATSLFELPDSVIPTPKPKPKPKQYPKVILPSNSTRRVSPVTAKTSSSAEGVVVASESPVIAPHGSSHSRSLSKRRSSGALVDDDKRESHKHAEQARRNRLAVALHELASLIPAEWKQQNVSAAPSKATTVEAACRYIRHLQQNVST

| Sequence | relative binding free energy [kcal/mol] |
| --- | --- |
| ATGGGCACGTGATGCT | 0 |
| GTCGACACGTGTGGGA | 0.02 |
| GGCGTCACGTGCAGGT | 0.25 |
| TGGGCCACGTGGAATG | 0.05 |
| TGCTTCACGTGTTTAT | 0.34 |
| GTTGGCACGTGAGTGA | 0.11 |
| TCGATCACGTGAGGTG | 0.29 |
| TATTACACGTGCGTTG | -0.07 |
| ATGAGCACGTGGTATA | -0.19 |
| TGTTTCACGTGTCAGT | 0.24 |
| GATTTCACGTGTCTTA | 0.42 |
| TTGGTCACGTGAAATG | 0.35 |
| TGAGCCACGTGCGAGG | 0 |
| GTGAACACGTGTGTTG | 0.01 |
| TGTAACACGTGTCGGT | 0 |
| GTGGTCACGTGCTAGG | 0.17 |
| GTTGTCACGTGATCGA | 0.16 |
| GTTAACACGTGTGTGC | 0.08 |
| TGTATCACGTGAATTT | 0.35 |
| AGAGGCACGTGGCTGG | -0.16 |
| GTTATCACGTGTAACG | 0.34 |
| GATGTCACGTGGTGGT | 0.14 |
| TTGTACACGTGAGGCA | 0.12 |

| Sequence | relative binding free energy [kcal/mol] |
| --- | --- |
| GCGTACACGTGGTGGA | 0.01 |
| ATGCGCACGTGTATGT | -0.08 |
| GTTTGCACGTGTCGGT | 0.03 |
| GGGTACACGTGTGGGG | 0.11 |
| TATTGCACGTGCGTGT | -0.09 |
| TGAATCACGTGGGAAG | 0.04 |
| AGTCACACGTGGTCGG | -0.01 |
| ATGTACACGTGTAAAT | 0.14 |
| GCCTGCACGTGTAGGG | 0.05 |
| AATGCCACGTGGTAGG | -0.23 |
| TTAGTCACGTGCGTAA | 0.01 |
| AGGTTCACGTGGTAAG | 0.25 |
| TTAGACACGTGGCGTG | -0.24 |
| CGGGGCACGTGGGACA | -0.19 |
| GCGCGCACGTGGGGCG | -0.26 |
| GATTTCACGTGATATG | 0.34 |
| TGTTTCACGTGGACTA | 0.29 |
| GCATTCACGTGGGTTT | 0.2 |
| ATCTGCACGTGAGAGT | 0.28 |
| TAGAGCACGTGTTTCG | -0.1 |
| ATCGGCACGTGATGGG | 0.07 |
| TTCATCACGTGCTGGG | 0.23 |
| TGTGCCACGTGAAAGT | 0.1 |

| Sequence | relative binding free energy [kcal/mol] |
| --- | --- |
| ACATTCACGTGGCGTG | 0.22 |
| GGGAGCACGTGTTTGA | -0.09 |
| AATTGCACGTGCTGTG | -0.15 |
| GGGGTCACGTGCGGTG | 0.13 |
| GGATTCACGTGGGGCC | 0.17 |
| TTTGGCACGTGATTCG | -0.02 |
| AATTGCACGTGAATAG | 0.28 |
| TTTCACACGTGCTTGG | 0.18 |
| CTGTACACGTGGGGGG | 0.01 |
| ATTAACACGTGGTAAA | 0.03 |
| GGAGTCACGTGGAGGC | 0.09 |
| GTTATCACGTGTGGCA | 0.24 |
| GAAAGCACGTGTTTTT | 0 |
| CAAGTCACGTGGGGTC | -0.06 |
| AATGGCACGTGCTTTA | -0.14 |
| GTTAGCACGTGCATGA | 0.08 |
| GCGATCACGTGGGTAG | 0.05 |
| GTTATCACGTGTTTGC | 0.19 |
| GTTGTCACGTGAGACT | 0.22 |
| TTTACCACGTGTTGGA | -0.03 |
| GTGTGCACGTGATTAA | 0.16 |
| GGTTACACGTGCACGG | 0.22 |
| GTTTACACGTGGAATT | 0.2 |

| Sequence | relative binding free energy [kcal/mol] |
| --- | --- |
| ATCGTCACGTGTGGCG | 0.04 |
| GGAAGCACGTGTTTGT | -0.06 |
| TTAAACACGTGTGATG | 0 |
| GTTTGCACGTGAGAGC | 0.22 |
| TGTGGCACGTGCTGCG | -0.25 |
| CTAGTCACGTGGAGTA | 0.04 |
| TTGTGCACGTGTAAAA | 0.1 |
| GGCGACACGTGTTAGT | 0.1 |
| GGGGTCACGTGTTTAG | 0.07 |
| GTAAGCACGTGATTAT | 0.08 |
| TGATACACGTGCGGTG | -0.05 |
| AAGGGCACGTGGGAGC | -0.13 |
| AGGATCACGTGGGCGC | 0.05 |
| TTGGTCACGTGTTGGT | 0.13 |
| AAACACACGTGGTGTT | -0.02 |
| TAAGTCACGTGGGCGA | -0.05 |
| TGTGACACGTGTCATT | -0.01 |
| TATAACACGTGTTAAT | 0 |
| GGTTCCACGTGGTTGC | 0.2 |
| AATTTCACGTGTTGGC | 0.3 |
| ATGAACACGTGGGGGA | -0.21 |
| ACTTTCACGTGCTTGG | 0.27 |
| TAAGGCACGTGGGTCT | -0.37 |

| Sequence | relative binding free energy [kcal/mol] |
| --- | --- |
| GGGATCACGTGTATGG | 0.24 |
| TGTTGCACGTGTGAAC | 0.05 |
| GTTGGCACGTGGTAAT | 0.01 |
| ACGTGCACGTGGGGAG | -0.14 |
| TGGTTCACGTGAGCAT | 0.3 |
| GGAGACACGTGTGGTT | 0.17 |
| AATTCCACGTGTGTTG | 0.02 |
| GTGGGCACGTGTTACT | -0.03 |
| TTTAGCACGTGTTCAA | -0.14 |
| GGATGCACGTGTTCGG | -0.05 |
| GTAGACACGTGGGGGT | -0.08 |
| GTTTACACGTGCAGTA | 0.15 |
| GAAGTCACGTGGGGGG | 0.11 |
| GCAGGCACGTGGAGTG | -0.19 |
| GCGTTCACGTGTGTGG | 0.34 |
| GGGGGCACGTGATGAG | 0.07 |
| ATGGTCACGTGGGGTC | -0.01 |
| GAATGCACGTGTGATT | 0.16 |
| GGGTTCACGTGATCTT | 0.47 |
| ATAGGCACGTGATGGG | -0.09 |
| CTTGTCACGTGCTGTA | -0.01 |
| GGTTTCACGTGGTCCT | 0.3 |
| TTTTGCACGTGCGTGC | -0.1 |
